# Data: PubChem BioAssay AID504332 (National Center for Advancing Translational Sciences (NCATS), 2011)
# Out of some 350,000 compounds screened, about 31,000 (8.9%) were called active. The shares of active, inactive and inconclusive entries below differ from those in the screen. Calls follow the shape of the dose curve; as a rule, active = well fitted inhibition curve with a large enough effect; inconclusive = small, poorly fitted or top-dose-only effect; inactive = no such curve, though single readings can be large or run the other way. Potencies beside an inconclusive call are fits to weak or partial responses and may not hold up.
# Target: Histone-lysine N-methyltransferase EHMT2 (Homo sapiens) (UniProt Q96KQ7)
# Test: qHTS Assay for Inhibitors of Histone Lysine Methyltransferase G9a; also: nearly all actives have a fitted effect of over 75% in size
# Conditions: G9a H3K9 monomethylation, AlphaScreen, 2 h; activity, negative = inhibition: at 59 µM (top of the series) unless noted
# In short: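 Step 1: enzyme (final 20 nM) with compound, 15 min RT. Step 2: substrate peptide 500 nM and SAM 20 uM, 2 h RT. Step 3: anti-H3K9me1 antibody and AlphaScreen beads, 10 min, then plate read.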
# % is scaled to controls: 0 for no effect and ±100 for the full control effect; potency is read from the fitted curve at half-maximal effect; tags tell the direction and shape of the fitted curve.
# Chain of UniProt Q96KQ7 (Q96KQ7 whole entry, looked up): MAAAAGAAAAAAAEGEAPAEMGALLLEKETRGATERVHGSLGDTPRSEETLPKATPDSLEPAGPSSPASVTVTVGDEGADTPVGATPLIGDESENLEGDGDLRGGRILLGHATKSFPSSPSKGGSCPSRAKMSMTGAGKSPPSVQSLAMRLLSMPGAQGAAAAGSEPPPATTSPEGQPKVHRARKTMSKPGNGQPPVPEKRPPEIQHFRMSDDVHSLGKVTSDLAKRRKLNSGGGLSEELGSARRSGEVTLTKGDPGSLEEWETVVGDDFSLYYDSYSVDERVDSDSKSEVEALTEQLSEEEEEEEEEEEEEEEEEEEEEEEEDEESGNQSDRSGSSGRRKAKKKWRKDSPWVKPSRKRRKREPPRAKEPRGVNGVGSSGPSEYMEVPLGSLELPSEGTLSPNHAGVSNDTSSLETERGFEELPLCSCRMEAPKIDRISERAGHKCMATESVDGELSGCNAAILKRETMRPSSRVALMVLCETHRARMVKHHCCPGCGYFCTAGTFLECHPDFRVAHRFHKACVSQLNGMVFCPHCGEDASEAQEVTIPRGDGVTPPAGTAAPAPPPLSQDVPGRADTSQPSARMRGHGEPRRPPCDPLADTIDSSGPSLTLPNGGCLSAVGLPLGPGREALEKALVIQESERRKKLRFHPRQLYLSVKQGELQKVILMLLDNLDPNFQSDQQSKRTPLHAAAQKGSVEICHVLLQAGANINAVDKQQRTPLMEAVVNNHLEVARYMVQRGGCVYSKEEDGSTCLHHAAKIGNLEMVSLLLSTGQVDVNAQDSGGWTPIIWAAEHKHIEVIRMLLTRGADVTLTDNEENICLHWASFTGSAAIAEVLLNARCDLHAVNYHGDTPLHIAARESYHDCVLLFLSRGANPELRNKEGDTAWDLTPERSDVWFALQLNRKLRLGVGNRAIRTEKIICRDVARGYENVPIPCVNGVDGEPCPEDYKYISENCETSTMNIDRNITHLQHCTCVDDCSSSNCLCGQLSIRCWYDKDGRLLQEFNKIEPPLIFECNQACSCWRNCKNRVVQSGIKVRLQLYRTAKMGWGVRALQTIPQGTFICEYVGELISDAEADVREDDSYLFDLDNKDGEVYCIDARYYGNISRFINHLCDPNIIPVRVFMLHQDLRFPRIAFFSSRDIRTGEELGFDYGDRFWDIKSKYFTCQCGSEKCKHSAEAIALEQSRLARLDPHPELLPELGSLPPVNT
SMILES,Potency,"activity, negative = inhibition"
O=C(NCc1n[nH]c(=S)n1-c1ccc(Br)cc1)c1cccs1,active: 10 µM,
CCOc1ccc(C(=O)N2CCN(c3cnn(-c4ccccc4)c(=O)c3Cl)CC2)cc1,,inactive: 15.9% [at 102 µM]
Cc1ccc(NC(=O)/C=C\C(=O)N(c2ccc(C(C)C)cc2)C(C(=O)NCc2ccco2)c2ccc(Cl)cc2)cc1 (stereo not given),"inconclusive: 28.2 µM [inhibitor, partial curve, poor fit]",
Cc1cc(/C=C2\SC(=Nc3ccc(N4CCOCC4)cc3)N(C)C2=O)c(C)n1-c1cccnc1,active: 70.8 µM,
CCn1c(CCCOc2ccc(Cl)cc2Cl)n[nH]c1=S,"inconclusive: 6.31 µM [inhibitor, full curve]",
COc1ccccc1N1CCN(C(=O)CCC(=O)Nc2nnc(CC(C)C)s2)CC1,,inactive: -8.16% [at 102 µM]
CC1=C(C)CC(C(=O)NCc2ccc3c(c2)OCO3)C(C(=O)O)C1 (stereo not given),,inactive: 0.264% [at 102 µM]
Cc1cc(C)c(NC(=O)Cn2c(=O)c3cccn3c3ccccc32)c(C)c1,inactive,
COc1ccccc1S(=O)Cc1ccc(C(=O)NCCc2ccc(Cl)cc2)o1 (stereo not given),active: 39.8 µM,
COCCCN(C(=S)Nc1cc(Cl)cc(Cl)c1)C(C)c1ccccn1 (stereo not given),,inconclusive: -87% [inhibitor]
CCOC(=O)N1CCN(C(=O)c2ccc3c(=O)n(-c4ccccc4F)c(=S)[nH]c3c2)CC1,active: 50.1 µM,
CC(=O)C1=C(O)C(=O)N(CCCn2ccnc2)C1c1ccc(C)cc1 (stereo not given),,inactive: 13.2% [at 2.33 µM]
CCOC(=O)c1c(NC(=O)CN2CCN(C(=O)C3CCCO3)CC2)sc(C)c1C (stereo not given),"inconclusive: 79.4 µM [inhibitor, single point]",
CCN(C(=O)CSc1nc2ccccc2o1)c1c(N)n(Cc2ccccc2)c(=O)[nH]c1=O,active: 7.08 µM,
CCOC(=O)c1cccc(NC(=O)CSc2nnc(CNc3ccc(C)cc3)n2CC)c1,"inconclusive: 50.1 µM [inhibitor, partial curve]",
O=C(Nn1c(SCc2cccc([N+](=O)[O-])c2)nc2ccccc2c1=O)c1ccccc1,"inconclusive: 25.1 µM [inhibitor, single point]",
Cc1c(NC(=O)CSc2nc3ccccc3[nH]2)c(=O)n(-c2ccccc2)n1C,,inactive: -5.22%
O=C(CN1CCCC1)NC(c1ccccc1)c1ccccc1,active: 10 µM,
Cc1ccc(NC2=C/C(=N\S(=O)(=O)c3cccs3)c3ccccc3C2=O)c(C)c1,active: 7.94 µM,
Cc1cccc(C(=O)OCC(=O)N2CCCCCC2)c1,,inactive: 3.51% [at 12.7 µM]
Cc1csc(NC(=O)CSc2nc3sc(C)c(C)c3c(=O)[nH]2)n1,"inconclusive: 2 µM [inhibitor, partial curve, poor fit]",
O=C(Cn1c2ccccc2c(=O)c2cc([N+](=O)[O-])ccc21)Nc1ccccc1Cl,"inconclusive: 89.1 µM [inhibitor, single point]",
CCOC(=O)Cc1csc(NC(=O)c2sc3nc4ccc(C)cc4cc3c2N)n1,"inconclusive: 79.4 µM [inhibitor, single point]",
CC(=O)Nc1nc2n(n1)C(c1ccc(F)cc1)C=C(c1ccc(Cl)cc1)N2 (stereo not given),"inconclusive: 39.8 µM [inhibitor, single point]",

SMILES,Potency,"activity, negative = inhibition"
COc1ccc(N2C(=O)C3CCCN3C2=O)cc1 (stereo not given),"inconclusive: 22.4 µM [inhibitor, single point]",
O=C(C(Cc1ccccc1)n1cccc1)N1CCN(c2cccc(Cl)c2)CC1 (stereo not given),"inconclusive: 70.8 µM [inhibitor, single point]",
O=C(c1cccc(S(=O)(=O)Nc2ccccc2Cl)c1)N1CCN(C(=O)c2ccco2)CC1,"inconclusive: 35.5 µM [inhibitor, partial curve]",
COc1cccc(N2C(=NC(=O)c3ccccc3)SC3CS(=O)(=O)CC32)c1 (stereo not given),,inactive: 20.9%
Cc1ccc(-n2c(C)cc(C(=O)C(=O)Nc3ccccc3)c2C)c(C)c1,,inactive: -37.9%
Cc1ccc(S(=O)(=O)N[C@H](C(=O)N2CCC(C(=O)N[C@H](C(=O)O)c3ccccc3)CC2)C(C)C)cc1,,inactive: -9.52% [at 12.7 µM]
CCCOc1ccc(C2=NNC(c3cccs3)=Nc3ccc(OC)cc32)cc1,"inconclusive: 10 µM [inhibitor, partial curve, poor fit]",
COc1ccc(-c2csc(NC(=O)C(CC(=O)O)N3CCOCC3)n2)cc1 (stereo not given),"inconclusive: 89.1 µM [inhibitor, single point]",
O=C(CSc1nnc(-c2ccco2)n1Cc1ccccc1)c1ccc(F)cc1,"inconclusive: 56.2 µM [inhibitor, partial curve, poor fit]",
CC1(C)CC(CC(=O)Nc2ccccn2)C(=O)O1 (stereo not given),,inactive: -3.27%
COCC1CCN(C(=O)c2cc(COc3ccc(C)c(C)c3)on2)C1 (stereo not given),"inconclusive: 1.41 µM [inhibitor, full curve]",
Clc1ccccc1C1=Nn2c(nnc2-c2ccncc2)SC1,"inconclusive: 89.1 µM [inhibitor, single point]",
COc1cc(/C=N/NS(=O)(=O)c2ccc(Br)cc2)ccc1O,"inconclusive: 89.1 µM [inhibitor, single point]",
Cc1cc(CN(C)C(=O)c2ccc(OC3CCN(Cc4ccccn4)CC3)cc2)on1,active: 50.1 µM,
OCCN(Cc1ccccc1)CC1CC2C=CC1C2 (stereo not given),active: 14.1 µM,
O=C(CN1CCC(n2nnc3cc(F)ccc32)CC1)NCc1ccco1,"inconclusive: 22.4 µM [inhibitor, partial curve, poor fit]",
COC(=O)Cc1csc(NCc2ccccc2)n1,,inactive: 18.7% [at 102 µM]
O=C(Nc1cccc(S(=O)(=O)N2CCCCC2)c1)c1ccco1,,inactive: 13% [at 12.7 µM]
COc1cc(C(=O)Nc2ccccc2-c2nc(-c3ccccc3)no2)cc(OC)c1OC,,inactive: -19.9%
CCc1cccc(NC(=O)c2cc3c(=O)n(Cc4ccccc4)ccc3nc2C)c1,,inactive: -4.23%
c1ccc(CNc2nc3ccccc3[nH]2)cc1,"inconclusive: 89.1 µM [inhibitor, single point]",
CN1CCN(CC(=O)C23CC4CC(CC(C4)C2)C3)CC1,"inconclusive: 20 µM [inhibitor, single point]",
COc1ccc(OC)c(CNC(=O)CCN2C(=O)COc3ccccc32)c1,"inconclusive: 89.1 µM [inhibitor, partial curve, poor fit]",
O=C(CSc1cn(Cc2ccccc2)c2ccccc12)Nc1nccs1,"inconclusive: 89.1 µM [inhibitor, single point]",

SMILES,Potency,"activity, negative = inhibition"
CCOC(=O)c1cccc(NC(=O)Cn2cc3c(n2)CCC(C)C3)c1 (stereo not given),"inconclusive: 89.1 µM [inhibitor, single point]",
Cc1nn(S(=O)(=O)c2ccc(C(C)C)cc2)c(C)c1S(=O)(=O)N1CCOCC1,active: 35.5 µM,
CCOc1ccc(/C=N/Nc2ccccn2)cc1,"inconclusive: 79.4 µM [inhibitor, partial curve, poor fit]",
Cc1cccc(N(C)c2nc3ccc(C(=O)c4ccccc4)cc3n3c(C)nnc23)c1,,inactive: -30.6%
Cc1ccc(-c2nc(-c3cccnc3)sc2CC(=O)O)cc1,"inconclusive: 79.4 µM [inhibitor, single point]",
O=C(CCC(=O)N1CCN(C2CCCCC2)CC1)Nc1nnc(C(F)(F)F)s1,"inconclusive: 89.1 µM [inhibitor, partial curve, poor fit]",
COc1cc(Br)cc(/C=N/c2ncn[nH]2)c1O,,inconclusive: -60.4% [inhibitor]
COc1ccc(NC(=O)c2ccc(-n3cccn3)c([N+](=O)[O-])c2)cc1,,inactive: 20.5% [at 12.7 µM]
CCc1ccc(-n2c(SCc3c(C)noc3C)nnc2-c2ccncc2)cc1,"inconclusive: 39.8 µM [inhibitor, single point]",
O=C(COC(=O)c1cccc(S(=O)(=O)NCc2ccccc2)c1)c1ccccc1,"inconclusive: 89.1 µM [inhibitor, single point]",
Cc1c(NC(=O)C(=O)/C=C(/O)c2ccccc2)c(=O)n(-c2ccccc2)n1C,active: 8.91 µM,
O=C(CCc1ccccc1)N1CCN(CCO)CC1,"inconclusive: 0.141 µM [inhibitor, full curve, poor fit]",
CN(Cc1ccccc1)CC(O)COc1ccc(CNCc2cccnc2)cc1 (stereo not given),"inconclusive: 56.2 µM [inhibitor, partial curve, poor fit]",
Cc1scc(C(=O)N2CCN(c3ccc(Cl)cc3)CC2)c1C,,inconclusive: -84.2% [inhibitor]
Nc1c2c(nn1-c1ccccc1)CCC2,"inconclusive: 3.98 µM [inhibitor, partial curve, poor fit]",
Cc1ccc(C)c(NC(=O)CN(C)S(=O)(=O)c2cccc3nsnc23)c1,,inactive: -0.903%
Cc1cccc(OCCCC(=O)Nc2ccc(S(=O)(=O)Nc3nccs3)cc2)c1C,active: 44.7 µM,
Cc1ccc(O)c(-c2cc(-c3ccccc3F)[nH]n2)c1,,inactive: 70.8% [at 12.7 µM]
CCCCCOc1ccc(/C=C/C(=O)Nc2sc(C)c(C)c2C(=O)OCC)cc1OC,"inconclusive: 0.158 µM [inhibitor, full curve, poor fit]",
COc1ccccc1NC(=O)Cn1cc(S(=O)(=O)Cc2ccccc2)c2ccccc21,"inconclusive: 31.6 µM [inhibitor, partial curve, poor fit]",
COc1ccc(C2=NN(C(=O)CSc3nc(=O)n4cccc(C)c4n3)C(c3ccc(C)cc3)C2)cc1 (stereo not given),"inconclusive: 8.91 µM [inhibitor, partial curve, poor fit]",
CS(=O)(=O)N(CC(=O)N1CCCC1)c1cc(Cl)c(Cl)cc1Cl,"inconclusive: 89.1 µM [inhibitor, partial curve, poor fit]",
